{"source": "the supplement of paper PMC3334620", "note": "Over roughly 33,000 sequences, “E-score (-0.5 to 0.5)” has its median near -0.016; the highest 2% begin near 0.32. The list shows a part of the results."}
{"molecular_target": "T1, Stp1 (UniProt B3LFK1)", "T1 sequence": "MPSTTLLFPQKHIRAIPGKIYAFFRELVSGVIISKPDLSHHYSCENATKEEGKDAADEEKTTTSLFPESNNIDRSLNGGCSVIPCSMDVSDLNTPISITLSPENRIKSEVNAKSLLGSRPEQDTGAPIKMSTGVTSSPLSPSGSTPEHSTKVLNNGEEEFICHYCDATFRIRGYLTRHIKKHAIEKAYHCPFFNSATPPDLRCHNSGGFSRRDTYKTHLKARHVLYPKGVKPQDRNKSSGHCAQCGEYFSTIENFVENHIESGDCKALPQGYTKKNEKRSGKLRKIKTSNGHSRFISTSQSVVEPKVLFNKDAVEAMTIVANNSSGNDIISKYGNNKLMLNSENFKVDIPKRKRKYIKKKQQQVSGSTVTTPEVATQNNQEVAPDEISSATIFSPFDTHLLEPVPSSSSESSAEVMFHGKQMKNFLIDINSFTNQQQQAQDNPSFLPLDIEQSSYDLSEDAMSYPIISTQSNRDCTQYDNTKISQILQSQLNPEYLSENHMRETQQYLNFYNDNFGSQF", "assay": "PBM E-score (8-mer binding enrichment) (E-score (-0.5 to 0.5)); higher = stronger / more preferred TF binding; most listed sequences are background and not binding sites", "conditions": "protein concentration: 200 nM; construct: GST-full length", "summary_of_the_method": "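Yeast transcription factors carrying a GST tag, as full-length proteins or DNA-binding domains, were produced by PURExpress in vitro transcription/translation. About 100-200 nM protein was applied to universal all-10-mer Agilent arrays, double-stranded by primer extension on fresh or once-stripped slides. Bound protein was detected with fluorescent anti-GST, and scans were normalised with masliner. The Universal PBM Analysis Suite gave each ungapped eight-base word, pooled with its reverse complement, an E-score, a modified Wilcoxon-Mann-Whitney statistic.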"}
{"sequence": "CCCAGGAC", "PBM E-score": -0.259}
{"sequence": "GATTCCAA", "PBM E-score": 0.0725}
{"sequence": "ATACTATC", "PBM E-score": 0.0298}
{"sequence": "GCGTGCCA", "PBM E-score": 0.206}
{"sequence": "GAATCATC", "PBM E-score": 0.0551}
{"sequence": "CATCTGAA", "PBM E-score": 0.0869}
{"sequence": "AGTCAGGC", "PBM E-score": 0.0383}
{"sequence": "GCAAGAGA", "PBM E-score": -0.105}
{"sequence": "ACCGATTC", "PBM E-score": -0.207}
{"sequence": "GCTCGTAC", "PBM E-score": -0.0319}
{"sequence": "GGCGGTTA", "PBM E-score": 0.0532}
{"sequence": "TCGAACCA", "PBM E-score": 0.053}
{"sequence": "CGTCGTCA", "PBM E-score": -0.0737}
{"sequence": "ATCCGAAT", "PBM E-score": 0.156}
{"sequence": "CTGTGATA", "PBM E-score": -0.0831}
{"sequence": "AAGGATCT", "PBM E-score": -0.101}
{"sequence": "CCGGAACG", "PBM E-score": 0.0376}
{"sequence": "AGCAGGAA", "PBM E-score": -0.0917}
{"sequence": "ATAGACTG", "PBM E-score": -0.0266}
{"sequence": "CGAAACTC", "PBM E-score": -0.188}
{"sequence": "TGTATTAA", "PBM E-score": 0.118}
{"sequence": "ACGACCAG", "PBM E-score": -0.0555}
{"sequence": "AATACATG", "PBM E-score": -0.0569}
{"sequence": "CGATATTC", "PBM E-score": -0.0542}
{"sequence": "AGGCTGGG", "PBM E-score": -0.261}
{"sequence": "ACCTCTAA", "PBM E-score": -0.102}
{"sequence": "CTATCAGA", "PBM E-score": -0.171}
{"sequence": "AAACCCCA", "PBM E-score": -0.188}
{"sequence": "ACGCGCGC", "PBM E-score": 0.289}
{"sequence": "AGCATTAA", "PBM E-score": -0.0764}
{"sequence": "CTGTGGTC", "PBM E-score": -0.134}
{"sequence": "ATCCGCAG", "PBM E-score": 0.152}
{"sequence": "CGCTATAG", "PBM E-score": -0.178}
{"sequence": "GCACGTAA", "PBM E-score": -0.0547}
{"sequence": "ACATAATG", "PBM E-score": 0.0685}
{"sequence": "ATAATTAC", "PBM E-score": 0.13}
{"sequence": "ACGATAAT", "PBM E-score": -0.00117}
{"sequence": "GTCTTCCA", "PBM E-score": -0.237}
{"sequence": "GTCTTCAC", "PBM E-score": -0.00987}
{"sequence": "CTATCAAG", "PBM E-score": -0.0607}
{"sequence": "GGGGCCTA", "PBM E-score": -0.433}
{"sequence": "ACAACTAC", "PBM E-score": -0.0492}
{"sequence": "GTAGTAAA", "PBM E-score": 0.0794}
{"sequence": "ACAGGAGG", "PBM E-score": -0.146}
{"sequence": "GCGACGGA", "PBM E-score": 0.116}
{"sequence": "ATAGAGCC", "PBM E-score": 0.304}
{"sequence": "AATGGAGG", "PBM E-score": -0.246}
{"sequence": "AGATATAC", "PBM E-score": -0.0856}
{"sequence": "CTGCGAAC", "PBM E-score": -0.114}
{"sequence": "GTTAGGTA", "PBM E-score": 0.0914}
{"sequence": "ATATCGTA", "PBM E-score": 0.0908}
{"sequence": "AAGGACAG", "PBM E-score": -0.0695}
{"sequence": "CCATGCCG", "PBM E-score": 0.336}
{"sequence": "ATATTAGA", "PBM E-score": 0.158}
{"sequence": "GTGTTAAA", "PBM E-score": 0.102}
{"sequence": "AAAGACTC", "PBM E-score": -0.179}
{"sequence": "CCAAGGTA", "PBM E-score": -0.15}
{"sequence": "GGCAGGTA", "PBM E-score": -0.0782}
{"sequence": "ATGTCCGG", "PBM E-score": -0.00537}
{"sequence": "AGAAACGC", "PBM E-score": 0.0995}
{"sequence": "AAGGATAA", "PBM E-score": 0.00348}
{"sequence": "ACCGGCTA", "PBM E-score": -0.0689}
{"sequence": "GCTTGACC", "PBM E-score": -0.173}
{"sequence": "GGAAGCGA", "PBM E-score": -0.042}
{"sequence": "AAAGGAGA", "PBM E-score": -0.323}
{"sequence": "CCACGTCA", "PBM E-score": -0.0175}
{"sequence": "GATCGTGA", "PBM E-score": -0.0394}
{"sequence": "AGATATGA", "PBM E-score": 0.0634}
{"sequence": "CAGATACG", "PBM E-score": 0.176}
{"sequence": "AAACGCCT", "PBM E-score": 0.141}
{"sequence": "AAAAAGTT", "PBM E-score": -0.039}
{"sequence": "GGACATCA", "PBM E-score": -0.00603}
{"sequence": "TGAATTCA", "PBM E-score": 0.225}
{"sequence": "AGATGTTA", "PBM E-score": 0.0502}
{"sequence": "GAAATGTA", "PBM E-score": 0.108}
{"sequence": "CGTCTGCA", "PBM E-score": 0.145}
{"sequence": "CGAGTGAA", "PBM E-score": 0.137}
{"sequence": "CGCTCAGC", "PBM E-score": 0.134}
{"sequence": "TGACCGCA", "PBM E-score": 0.025}
{"sequence": "CAGAATAC", "PBM E-score": -0.0754}
{"sequence": "AAATCTCA", "PBM E-score": 0.0633}
{"sequence": "GTCTGAGA", "PBM E-score": 0.054}
{"sequence": "CATCTCAA", "PBM E-score": -0.024}
{"sequence": "GACTTCCA", "PBM E-score": -0.354}
{"sequence": "CTCGAAGA", "PBM E-score": -0.197}
{"sequence": "ATCTAGAC", "PBM E-score": -0.038}
